Measured values published in PubChem BioAssay AID1347073 (National Center for Advancing Translational Sciences (NCATS), 2019).
Among all 45,000 compounds or so, about 200 (0.44%) were called active. About 7% were inconclusive and are not listed. The call rests on the fitted dose curve; in most records, active means well fitted activation curve with a large enough effect; inconclusive means small, poorly fitted or top-dose-only effect; inactive means no such curve, though single readings can be large or run the other way. This is one part of the list.

Assay: qHTS of TDP-43 Inhibitors: NCGC Sytravon Library Screen; further: 0% is about no effect; nearly all actives have a fitted effect of over 55% in size
Details: yeast TDP-43 toxicity rescue, BacTiter-Glo growth, 24 h; series mostly up to 46.1 µM; growth rescue (activation): at the top concentration
Procedure, shortened: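 TDP-43-expressing yeast, pregrown in raffinose, seeded at OD600 0.02 in galactose medium with compound for 24 hr at 30 deg C. Growth read by BacTiter-Glo luminescence, so rescue of toxicity appears as activation.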

Structure (SMILES) | growth rescue (activation)
O=C(NC(Cc1ccccc1)c1nc2ccccc2[nH]1)c1cccc([N+](=O)[O-])c1 (stereo not drawn) | inactive: 8.69%
COc1ccc(CN(C)CC(O)COC(c2ccccc2)c2ccccc2)c(OC)c1OC (stereo not drawn) | inactive: 4.86%
COc1ccc(S(=O)(=O)NCC2CCCO2)cc1NC(=O)c1ccccc1F (stereo not drawn) | inactive: -8.89%
O=C(CC12CC3CC(CC(C3)C1)C2)NC(=S)NCc1ccccc1 | inactive: 20.2%
COc1ccc(Cl)cc1Nc1nc(C)nc2c1nnn2Cc1ccccc1 | inactive: 8.31%
O=C(CSc1ccc(Cl)cc1)Nc1ccccc1Oc1ccccc1 | inactive: -36.7%
COc1ccc(NC(=O)c2cc(C3CCCCN3C(=O)C3CC3)on2)c(C)c1 (stereo not drawn) | inactive: -0.593%
COC(=O)c1cc([N+](=O)[O-])c(-n2ccnc2)c([N+](=O)[O-])c1 | inactive: 21.4%
COc1ccc(C2(C#N)CCC(=O)N2c2ccccc2)cc1 (stereo not drawn) | inactive: 7.63%
CC(OC(=O)Cn1cc(C(F)(F)F)ccc1=O)C(=O)N(C)c1ccccc1 (stereo not drawn) | inactive: 13.9%
CC(C)OC(=O)c1ccc(NC(=S)NC(=O)c2cncc(Br)c2)cc1 | inactive: 2.27%
O=C(Nc1ccc(Cl)c([N+](=O)[O-])c1)c1ccncc1 | inactive: 4.89%
Cn1c(Nc2ccc(Cl)cc2)cc(=O)n(C)c1=O | inactive: 4.2%
Cc1ccc2nc(NCc3ccccc3)c(C=NCc3cccnc3)c(=O)n2c1 | inactive: -1.72%
CCSc1nc2ccccc2n1C(=O)c1ccc(S(=O)(=O)N2CCCCCC2)cc1 | inactive: 20.6%
Cc1ncc(CN2CCCC(C(=O)Nc3ccc(-c4cccc(F)c4)cc3)C2)s1 (stereo not drawn) | inactive: -6.7%
O=C(CS(=O)(=O)Cc1ccccc1)N1CCc2ccccc2C1 | inactive: 19.3%
Cc1cc(=O)oc2cc(NC(=O)c3cccc(S(=O)(=O)N(C)C)c3)ccc12 | inactive: -11.7%
Fc1ccc(-c2csc(=S)[nH]2)cc1 | inactive: 21%
O=C(Nc1ccccc1N1CCCC1)c1cccc(Cl)c1Cl | inactive: -1.8%
O=C(Nc1cccc(OC(F)(F)F)c1)C1Cc2c(-c3ccccc3Oc3ccccc3)ccnc2O1 (stereo not drawn) | inactive: 3.93%
Cc1cccc(Oc2nc3ccccn3c(=O)c2/C=C(\C#N)C(=O)NC2CCS(=O)(=O)C2)c1 (stereo not drawn) | inactive: 6.39%
COc1ccc(C2=CSC3=NCCN23)cc1Cl | inactive: 12.7%
C=CCn1c(O)c(N=Nc2ccccc2C)c2ccccc21 | inactive: 4.7%
CCc1nc2ccc(C(=O)N(CC)CCN(C)C)cn2c1N(C)CCCc1ccccc1 | inactive: 7.7%
C[C@]12CCC3C(CC[C@H]4CC(O)CC[C@]34C)C1CC/C2=N/O (stereo partly drawn) | inactive: -20.4%
CC(C)N1CCC(N2CCN(C3CCCCC3)CC2CCO)CC1 (stereo not drawn) | inactive: 0.591%

Structure (SMILES) | growth rescue (activation)
Cc1nn(C)c(Cl)c1C(N)=O | inactive: 2.93%
COc1ccccc1NC(=O)NC1(C(=O)N2CCN(C)CC2)CCCCC1 | inactive: 4.85%
O=C(CN1N=C(c2ccccc2)CCC1=O)NCCCN1CCc2ccccc2C1 | inactive: 1.99%
COCCNC(=O)C1(C)CCN(C(=O)c2sc(-c3ccccc3)nc2C)C1 (stereo not drawn) | inactive: -0.772%
Cc1cc(CNC(=O)COc2ccc(C)c(C)c2)c2ccccc2n1 | inactive: 17.2%
C=C(C)Cn1c(CCNC(=O)c2ccco2)nc2ccccc21 | inactive: -23.7%
COc1ccc(Cc2nc3c4cnn(-c5ccccc5F)c4ncn3n2)cc1 | inactive: 18.2%
COc1cc(C)nc(NC(=S)N(C)C(=O)c2ccccc2)n1 | inactive: -0.257%
Cc1ccccc1C1C(C#N)=C2N=C(N)c3ccccc3N2C2=C1C(=O)CCC2 (stereo not drawn) | inactive: 5.44%
CCOC(=O)c1[nH]c2cc3c(cc2c1NC(=O)CN1CC(C)CC(C)C1)OCO3 (stereo not drawn) | inactive: -2.42%
CN(CCO)c1ccc(-c2n[nH]c(=O)c3ccccc23)cc1[N+](=O)[O-] | inactive: -33.7%
Cc1nc(NC(=O)CSc2nnc(-c3ccc4c(c3)OCO4)o2)c(Cl)cc1Cl | inactive: 25.4%
COc1cc(Cc2ccc(N)c(OC)c2)ccc1N | inactive: -5.12%
CCn1c2ccccc2c2nnc(SCN3C(=O)c4ccccc4C3=O)nc21 | inactive: 4.05%
CNC(=O)NC(=O)CSc1nc2sccc2c(=O)n1-c1ccccc1 | inactive: -15.4%
COc1ccc(C(=O)NC2CCN(CC(=O)NCc3ccccc3F)CC2)cc1 | inactive: -13%
CSCCC(NC(=O)c1ccccc1Br)C(=O)N1CCC(C)CC1 (stereo not drawn) | inactive: 3.13%
O=C(CN(C(=O)CCC(=O)Nc1nccs1)c1ccccc1F)NCCc1ccccc1 | inactive: 0.767%
CCOC(=O)CN1C(=O)NC2(CCCc3ccccc32)C1=O (stereo not drawn) | inactive: 6.54%
NC(=O)N/N=C/c1coc2ccc3ccccc3c2c1=O | inactive: -27.7%
COc1ccc(S(=O)(=O)N2CCC(C(=O)NCc3ccccc3)CC2)cc1OC | inactive: 10.6%
CC(C)C(c1nnnn1C1CCCC1)N1CCC(C(N)=O)CC1 (stereo not drawn) | inactive: -5.94%
COc1cccc(CNc2nc(NCC3CC3)nc3ccsc23)c1OC | inactive: 8.65%
CCCOc1ccc(-c2nc3c(c(=O)[nH]c(=O)n3Cc3ccccc3)n2CCO)cc1OCC | inactive: 8.99%
COc1ccc(Cn2c(C(C)C)nc3sc4ccccc4c(=O)c3c2=O)cc1 | inactive: 18.8%
CC(C)(C)C(=O)NNC(=O)C1CC1(c1ccccc1)c1ccccc1 (stereo not drawn) | inactive: -0.532%
